The values below come from publication PMC4336329 (PLoS ONE, 2015).

The structures appear in SMILES notation. Hit rate of the full screen: of about 310,000 compounds, about 2,200 (0.71%) showed an effect of 50% or more. The effect is printed as a negative number. Some of the results follow.

This assay deals with human ether-à-go-go-related gene (hERG) potassium channel (human, UniProt Q12809). As to the kind of experiment: primary screen, population patch clamp on CHO cells stably expressing hERG.
Chain of human ether-à-go-go-related gene (hERG) potassium channel (Q12809 whole entry, looked up): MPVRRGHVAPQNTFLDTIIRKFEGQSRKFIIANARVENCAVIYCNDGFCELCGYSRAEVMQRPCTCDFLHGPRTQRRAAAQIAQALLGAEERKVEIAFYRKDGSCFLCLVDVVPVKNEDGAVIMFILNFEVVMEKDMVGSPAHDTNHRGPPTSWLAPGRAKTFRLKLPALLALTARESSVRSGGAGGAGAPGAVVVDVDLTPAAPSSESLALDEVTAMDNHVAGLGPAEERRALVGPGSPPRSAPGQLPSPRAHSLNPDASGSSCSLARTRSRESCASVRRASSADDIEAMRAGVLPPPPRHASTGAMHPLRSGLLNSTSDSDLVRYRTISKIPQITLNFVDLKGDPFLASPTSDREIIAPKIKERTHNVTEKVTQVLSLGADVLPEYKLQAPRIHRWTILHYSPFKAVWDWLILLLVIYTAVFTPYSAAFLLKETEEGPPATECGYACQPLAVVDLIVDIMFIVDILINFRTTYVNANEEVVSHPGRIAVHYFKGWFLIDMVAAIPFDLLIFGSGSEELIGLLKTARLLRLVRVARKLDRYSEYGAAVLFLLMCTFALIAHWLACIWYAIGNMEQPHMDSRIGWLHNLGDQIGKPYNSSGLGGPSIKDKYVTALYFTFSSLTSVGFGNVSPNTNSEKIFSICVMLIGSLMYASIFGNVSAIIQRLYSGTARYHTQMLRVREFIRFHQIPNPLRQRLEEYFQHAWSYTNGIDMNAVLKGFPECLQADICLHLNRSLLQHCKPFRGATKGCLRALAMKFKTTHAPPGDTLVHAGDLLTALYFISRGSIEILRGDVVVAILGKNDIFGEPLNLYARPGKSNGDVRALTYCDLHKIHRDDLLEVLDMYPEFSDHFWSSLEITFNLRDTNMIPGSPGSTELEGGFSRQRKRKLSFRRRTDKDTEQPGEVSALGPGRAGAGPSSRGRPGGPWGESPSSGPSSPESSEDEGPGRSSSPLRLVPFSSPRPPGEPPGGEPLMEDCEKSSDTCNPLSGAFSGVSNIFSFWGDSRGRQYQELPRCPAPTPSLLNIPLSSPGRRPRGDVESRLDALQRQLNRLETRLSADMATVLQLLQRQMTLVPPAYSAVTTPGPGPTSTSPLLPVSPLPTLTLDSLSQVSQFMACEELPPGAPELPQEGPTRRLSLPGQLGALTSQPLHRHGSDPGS
With `COc1ccc(-n2nc(C(=O)NCC(=O)NCC3COc4ccccc4O3)c3ccccc3c2=O)cc1OC` (stereo not drawn), the “hERG current change (%, negative = inhibition) at 1uM” value amounted to 7.16%.
As for `CCOC(=O)c1ccc2cccc(C)n2c1=O`, the “hERG current change (%, negative = inhibition) at 1uM” value is 5.86%.
The result for `NNC(=O)CNC(c1ccccc1)c1cc(Br)ccc1NC(=O)c1ccccc1Br` (stereo not drawn) reads -3.12%; that for `COc1ccc2oc(=O)c(C(=O)N3CCN(C(=O)c4ccco4)CC3)cc2c1`, 4.72%.
Under `O=C(COc1ccc2ccccc2c1)NCCNC(=O)COc1ccc2ccccc2c1` stands 14.8%.
Under `CCOC(=O)N1CCN(Cc2nc3c(c(=O)n(C)c(=O)n3C)n2Cc2cccc3ccccc23)CC1` stands -2.27%.
Regarding `CCCCn1c(SCC(=O)Nc2nnc(CC)s2)nc2c1c(=O)n(C)c(=O)n2C`, the “hERG current change (%, negative = inhibition) at 1uM” value is 0.776%.
The result for `CCOc1ccc(CCNC(=O)Cn2ncn3nc(-c4ccc(OC)cc4)cc3c2=O)cc1OCC` reads 4.27%; that for `O=C(Cc1ccccc1)c1c[nH]c(C(=O)C(Cl)(Cl)Cl)c1`, 11.4%.
Under `CCOc1ccc(Cn2ccnc2CCl)cc1[N+](=O)[O-]` stands -6.9%; under `CCN(CC(=O)Nc1ccc(NC(C)=O)cc1)C(=O)CSc1ncnc2sc(C)c(C)c12`, 11%; under `COc1ccc(C(=O)NC2CCN(CC(=O)NCc3cccc(OC)c3)CC2)cc1`, 2.46%.
Under `CCCn1c2ccccc2c2nnc(SC(CC)C(=O)Nc3sc4c(c3C#N)CCCC4)nc21` (stereo not drawn) stands 16.1%.
Consider `COc1cccc(NC(=O)CSc2nccn(-c3ccc4c(c3)OCCO4)c2=O)c1`, for which the “hERG current change (%, negative = inhibition) at 1uM” value is reported as 4.61%.
Under `Cc1csc(NS(=O)(=O)c2ccc(Cl)cc2)n1` stands -0.497%; under `COc1ccc(-c2nn(-c3ccccc3)cc2CNC(C)Cn2cncn2)c(F)c1` (stereo not drawn), 2.88%; under `COc1ccccc1NC(=O)COC(=O)c1cc([N+](=O)[O-])ccc1N1CCCC1`, 5.09%.
Under `CSc1ccccc1C(=O)Nc1nc2ccccc2c(=O)[nH]1` stands 12.8%; under `COc1ccc(Cn2nnnc2C(c2ccc(C)cc2)N2CCN(C3CCCC3)CC2)cc1.Cl` (stereo not drawn), -32.4%.
The result for `O=C(N/N=C/c1ccccc1)c1ccc(N2CCOCC2)c([N+](=O)[O-])c1` reads 0.857%; that for `COc1ccc(Oc2ccccc2/C=N/O)cc1`, 8.34%.
In the case of `Cc1c(CCC(=O)O)c(=O)oc2cc(OCc3ccccc3F)ccc12`, the “hERG current change (%, negative = inhibition) at 1uM” value turned out to be 15.5%.
The result for `O=C(Nc1cccc(C(=O)N2CCCCC2)c1)c1ccc(Cl)cc1` reads 16.6%.
The result for `CCN1C(=O)C2C(c3ccccc3F)NC(Cc3ccc(O)cc3)(C(=O)OC)C2C1=O` (stereo not drawn) reads 6.5%; that for `COc1ccc(C(=NN)c2ccc(OC)cc2)cc1`, 3.04%.
Under `CC(C)OCCCN1C(=O)c2[nH]nc(-c3ccccc3O)c2C1c1cccc(Cl)c1` (stereo not drawn) stands -9.21%.
As to `Cc1noc(C)c1COc1ccccc1C(=O)NCc1ccco1`, the “hERG current change (%, negative = inhibition) at 1uM” value was 11.3%.
Take `O=C(C1CCN(S(=O)(=O)c2cccc3cccnc23)CC1)N1CCn2c1nc1ccccc12`: the “hERG current change (%, negative = inhibition) at 1uM” value is recorded as 9.93%.
For `Cn1c(=O)c(/C(N)=N/OC(=O)c2ccccc2)cn(-c2ccccc2)c1=O`, the “hERG current change (%, negative = inhibition) at 1uM” value is 13.9%.
Under `CCOC(=O)N1CCN(C(=O)C2CCC(=O)N(CCc3ccccc3)C2)CC1` (stereo not drawn) stands 12.7%.
Under `CCOc1ccc2nc(N3CCCC(C(=O)N4CCN(CC)CC4)C3)sc2c1` (stereo not drawn) stands -1%; under `CC(NC(=S)NC1CCCCC1)C(c1ccccc1)N1CCOCC1` (stereo not drawn), 11.7%; under `C=CCOC(=O)/C(=C\c1ccccc1)NC(=O)c1ccco1`, 1.39%.
The result for `O=C(Nc1nc2c(s1)CCCC2)c1cccc(S(=O)(=O)N2CCCc3ccccc32)c1` reads -0.193%; that for `Cc1cccc(N2C(=O)CC(Sc3ncn[nH]3)C2=O)c1` (stereo not drawn), 16.9%; that for `O=C(Nc1nnc(CC(c2ccccc2)c2ccccc2)s1)c1ccco1`, 16.6%.
Take `COCCCNC(=O)c1nc2c(nnn2Cc2cc(C)ccc2C)c(=O)[nH]1`: the “hERG current change (%, negative = inhibition) at 1uM” value was determined as 10.5%.
Under `COC(=O)C1=C(c2ccc(OC(F)(F)F)cc2)C[C@@H]2CC[C@H]1N2C(=O)N1CCOCC1` stands -0.581%; under `Cc1ccc(NC(=O)c2ccccc2)s1`, -5.19%; under `O=C(COC(=O)C1CC2CCCC(C1)C2=O)NNC(=O)c1ccc([N+](=O)[O-])cc1` (stereo not drawn), -0.218%.
Under `OCCC1CN(Cc2nc3c(s2)CCCC3)CCN1Cc1ccsc1` (stereo not drawn) stands 2.76%.
Turning to `CCOC(=O)C1(CCOc2ccccc2)CCN(Cc2cccn2-c2cccnc2)CC1`, the “hERG current change (%, negative = inhibition) at 1uM” value came to 9.53%.
Under `Cc1ccccc1OCCC(=O)OCC(=O)NCCc1ccc(S(N)(=O)=O)cc1` stands 6.02%; under `COc1ccc(C)cc1NC1=NCCCS1`, 17.4%; under `CC(=O)Nc1ccc(NC(=O)CSc2n[nH]c(-c3cccs3)n2)cc1`, -5.49%.
Under `Cc1nn(Cc2ccc(Cl)cc2)c(C)c1NC(=O)CCCn1nc([N+](=O)[O-])c(Cl)c1C` stands -39.3%; under `CC(=O)c1ccc(N2C(=NC(=O)CCc3ccccc3)SC3CS(=O)(=O)CC32)cc1` (stereo not drawn), 10.3%.
The result for `CN(C(=O)c1ccccc1F)C(c1ccccc1)c1ccccc1` reads 9.05%.
Take `Cc1sc2nc(SCc3ccccc3)n(Cc3ccco3)c(=O)c2c1C`: the “hERG current change (%, negative = inhibition) at 1uM” value is -6.43%.
As to `CC(C)(C)c1ccc(-c2nc(-c3ccncc3)no2)cc1`, the “hERG current change (%, negative = inhibition) at 1uM” value is recorded as 3.82%.
The result for `Cc1nc2ccccc2n1CC(=O)NCc1ccccc1` reads 19.3%.
With `O=C(COc1ccc2c(c1)oc(=O)c1ccccc12)NCC1CCC(C(=O)O)CC1` (stereo not drawn), the “hERG current change (%, negative = inhibition) at 1uM” value is on record as 13.3%.
Under `O=C(CN1CCN(Cc2ccccc2)CC1)NC(=O)NCc1ccco1` stands -12.3%; under `C/C(CC(=O)NCc1ccco1)=N\NC(=O)C(c1ccccc1)c1ccccc1`, 6.69%.
